These results are taken from ChEMBL document CHEMBL4888484, “Replenishing the malaria drug discovery pipeline: Screening and hit evaluation of the MMV Hit Generation Library 1 (HGL1) against asexual blood stage Plasmodium falciparum ,using a nano luciferase reporter read-out” (2022).

The whole screen tested about 150,000 compounds, of which about 540 (0.36%) showed an effect of 50% or more. Some of the results follow.

For this experiment, the system named is Plasmodium falciparum. The experiment is described as follows: Primary screen in NF54 nanoGlo assay, in single point, at 2uM, 72h; a lower Z score goes with more inhibition. Particulars: timepoint 72 hour. The format is functional, Erythrocyte.
`COc1cccc(C2(C(=O)N3CCCO[C@@H](CN)C3)CCCC2)c1`: the “% Inhibition” value is recorded as -1% and the Z score is on record as 0.15.

Regarding `COc1ccc(OC)c(C(=O)N2CC[C@H](C(=O)Nc3cn[nH]c3)C2)c1`, the “% Inhibition” value was -2% and the Z score was 0.36.

On to `CC(C)c1noc(C(C)N2CCN(C3CCOC3=O)CC2)n1` (stereo unspecified), for which the “% Inhibition” value is recorded as -14% and the Z score stood at 2.32.

Turning to `CCCNC(=O)CNC(=O)C(=O)c1ccc(C(C)(C)C)cc1`, the “% Inhibition” value is reported as -3% and the Z score was 0.32.

Consider `N#Cc1cc2n(n1)CCN(CC1=CCCCC1)C2`, for which the “% Inhibition” value was -10% and the Z score amounted to 1.9.

Turning to `Cc1nn(C)c2ncnc(N(C)Cc3cc(C(C)C)on3)c12`, the “% Inhibition” value worked out at 0% and the Z score is given as 0.04.

In the case of `NC(=NCc1ccc(Cl)cn1)N1CCN(c2nccs2)CC1`, the “% Inhibition” value is on record as -4% and the Z score is listed as 0.42.

For the molecule `Cc1ccc(NC(=O)c2cc(N3CC(C)OC(C)C3)ccn2)cn1` (stereo unspecified), the “% Inhibition” value is on record as 0% and the Z score was found to be 0.03.

For the molecule `N#Cc1cc(Cl)ccc1CN1C(=O)CC2(CCC2)C1=O`, the “% Inhibition” value is listed as -8% and the Z score came out at 0.71.

On to `CS(=O)(=O)C1(c2nc(C3CCCCC3)no2)CCCC1`, for which the “% Inhibition” value is on record as -10% and the Z score worked out at 1.28.

Take `Nc1nc2c(s1)CCN(Cc1ccccc1)C2`: the “% Inhibition” value is given as -9% and the Z score is reported as 1.29.

As for `O=S(=O)(N[C@H]1CCc2nnc(-c3ccc(F)cc3)n2C1)N1CCCCC1`, the “% Inhibition” value was 34% and the Z score is recorded as -0.62.

Regarding `COCCN1CCN(CC2=Nc3ccccc3S(=O)(=O)N2)CC1`, the “% Inhibition” value is given as -10% and the Z score is 1.96.

In the case of `CC(C(=O)Nc1nccs1)N1CCOC(c2nccs2)C1` (stereo unspecified), the “% Inhibition” value was -8% and the Z score turned out to be 0.96.

`CC(C)n1cnnc1CC1CN(C(=O)Nc2ccc(Cl)cc2C(F)(F)F)C1`: the “% Inhibition” value was 1% and the Z score was -0.12.

With `CCn1nc(C(=O)N2C[C@@H]3CC[C@H]2CN(Cc2[nH]cnc2C)C3)cc1C`, the “% Inhibition” value is listed as -6% and the Z score is 0.59.

Turning to `O=C(C1CCOCC1)N1CC[C@H](C2CCCCC2)C1`, the “% Inhibition” value was -9% and the Z score is recorded as 0.98.

Take `O[C@@H]1COCCN(c2nc3ccc(Cl)cc3s2)C1`: the “% Inhibition” value is given as -7% and the Z score came out at 0.74.

As to `CC(=O)N1CCc2cc(S(=O)(=O)N3CCCc4cc(F)cc(C)c43)ccc21`, the “% Inhibition” value is given as -5% and the Z score came to 0.76.

For `CCOc1ccccc1CN1CCn2nc(CN3C[C@H]4CCC[C@@H]3C4)cc2C1`, the “% Inhibition” value was -8% and the Z score was found to be 0.98.

For `CC(C)N(C1CC1)S(=O)(=O)CCC(C)(C)C#N`, the “% Inhibition” value is on record as -25% and the Z score was 2.98.

`CC1(C#N)CN(S(=O)(=O)c2cccc(N)c2)C1`: the “% Inhibition” value worked out at 8% and the Z score was -1.01.

Consider `Cc1sc(NC(=O)C(c2ccccc2)c2ccccc2)nc1-c1ccccc1`, for which the “% Inhibition” value is listed as -8% and the Z score is on record as 1.01.

`COc1ccc([C@H](C(N)=O)c2cnnc3cc(OC)c(OC)cc23)cc1OC`: the “% Inhibition” value is -2% and the Z score is reported as 0.21.

For the molecule `Cc1nc(-c2nnc[nH]2)sc1C(=O)Nc1nnc(C(C)C)s1`, the “% Inhibition” value was determined as 2% and the Z score was -0.27.

Regarding `O[C@H]1C[C@@H]2CN(c3noc(-c4ccccc4)n3)C[C@@H]2C[C@@H]1O`, the “% Inhibition” value is recorded as 2% and the Z score was -0.43.

Turning to `C[C@@H]1Oc2ccc(NC(=O)c3ccc(F)cc3F)cc2CN(CCc2ccc(F)cc2)C1=O`, the “% Inhibition” value is listed as -14% and the Z score is on record as 1.6.

In the case of `COCCN1C(=O)CC[C@@H](C(=O)N(C)Cc2cccnc2)[C@H]1C`, the “% Inhibition” value is -9% and the Z score is recorded as 1.21.

Turning to `CC(=O)N(C(C)=O)c1nc(C)cc(-n2nc(-c3ccc(F)cc3)cc2C(F)(F)F)n1`, the “% Inhibition” value is recorded as -5% and the Z score turned out to be 0.65.

Turning to `CCOc1ccc(CNC(=O)C2CN(c3cc(-n4cccn4)ncn3)C2)cn1`, the “% Inhibition” value is on record as -9% and the Z score came to 1.6.

With `Cc1cc(Br)cc(S(=O)(=O)N(C)C)c1`, the “% Inhibition” value was -6% and the Z score was determined as 0.78.

With `O=C(Nc1cccc(OC(F)F)c1)N[C@H]1COC[C@@H]1N1CCCC1`, the “% Inhibition” value worked out at 7% and the Z score was -1.4.

On to `Cn1cnc2c1CCN(C(=O)c1ccc(CO)cc1)C2`, for which the “% Inhibition” value is reported as 2% and the Z score was -0.29.

Consider `COC(=O)c1sc(N)nc1C1CCCC1`, for which the “% Inhibition” value is listed as -4% and the Z score is reported as 0.46.

For `CC(=O)N(c1ccc(F)cc1)C1CCCC1`, the “% Inhibition” value stood at 0% and the Z score is on record as -0.02.

`Cc1ccc(OCc2cccc(C(=O)N3CCC[C@@H]3CN3CCCCC3)c2)cn1`: the “% Inhibition” value was found to be 39% and the Z score is -1.15.

As to `CCCC(CCC)N1CCC(CO)CC1`, the “% Inhibition” value is reported as -4% and the Z score was 0.43.

Consider `Cc1c(C(c2ccc(-c3ccc(Br)cc3)o2)c2c(C)n(C)n(-c3ccccc3)c2=O)c(=O)n(-c2ccccc2)n1C`, for which the “% Inhibition” value was -10% and the Z score is given as 1.83.

Regarding `O=C(N[C@@H](Cc1ccccc1)c1ccccc1)c1nc(CCc2ccccc2)n(-c2ccccc2)n1`, the “% Inhibition” value was -2% and the Z score was found to be 0.33.

For the molecule `CCCN(CCC(=O)NCc1ccco1)c1nc(CC)nc2cc(Cl)ccc12`, the “% Inhibition” value is given as -2% and the Z score is on record as 0.18.

Take `O=S(=O)(NC[C@@]1(COc2cnccn2)C[C@@H](O)[C@@H](O)C1)c1ccc(Cl)cc1`: the “% Inhibition” value was found to be 31% and the Z score is recorded as -3.54.

Consider `CNc1nc(-c2ccccc2)c(-c2ncc(C)c(OC)c2C)s1`, for which the “% Inhibition” value is listed as -3% and the Z score is given as 0.45.

As for `CNC(=O)C1CCC(NC(=O)[C@@H]2CCCN2C(=O)c2ccccc2O)CC1` (stereo partly specified), the “% Inhibition” value is -8% and the Z score is reported as 1.05.

For orientation: % Inhibition means the change of the read-out against control, counted positive when it falls.
